The record followed here is the supplement of paper PMC10986608.

The structures appear in SMILES notation. Some of the results follow. Single values are uncertain, as repeats are few or missing.

For this assay, the system named is Candida albicans DPL-15. In words: growth (OD600) after compound treatment (apparently relative to screen median) (relative growth (fraction; screen median 1.02)); DPL-15 is a caspofungin-resistant clinical isolate; higher = more fungal growth (less antifungal activity). The following applies: 25 µM; RPMI 1640; 48 h; 30 °C.
On to `O=C(NCc1ccco1)N1CCc2nc(-c3ccccc3)c(-c3ccccc3)cc2C1`, for which the growth turned out to be 1.02.

Turning to `CC1=NCCNC2=C1C(c1ccc(F)cc1)N(Cc1ccccc1)C2=O` (stereo not drawn), the growth was 0.913.

Take `CC(C)CC1=NCCNC2=C1C(c1cccc(C(F)(F)F)c1)N(Cc1ccccc1)C2=O` (stereo not drawn): the growth was 1.12.

Consider `CO[C@@H]1[C@H](O)CC[C@]2(O)CN3[C@H](Cc4ccccc4)C(=O)O[C@H](CC=C(C)C)[C@]3(C)[C@@H]12`, for which the growth was 0.986.

With `C=CC12C=C(C)C3c4c(cc(O[Si](C(C)C)(C(C)C)C(C)C)cc4N1C(=O)OC2)C(O[Si](C)(C)C(C)(C)C)[C@@H]3C` (stereo partly drawn), the growth is 0.989.

In the case of `COC(=O)c1cc2c(c3c4ccccc4n(S(=O)(=O)c4cccc(C)c4)c13)C(=O)N(Cc1cccc(F)c1)C2`, the growth came to 0.938.

On to `CC1=NCCNC2=C1C(c1ccc3c(c1)OCO3)NC2=O` (stereo not drawn), for which the growth came out at 1.09.

`Cc1ccc(C2NC(=O)c3nn(Cc4ccccc4)c(CC(C)C)c32)cc1` (stereo not drawn): the growth is 0.937.

With `C=CC[C@]12C[C@@]3(O[C@H](C(C)C)N=C3C[C@H](c3ccc(OC)cc3)[C@H]1C)N(Cc1cccnc1)C2=O`, the growth amounted to 0.98.

`COC(=O)c1cc2c(c3c4cc(OC)ccc4n(S(=O)(=O)c4cccc(C)c4)c13)C(=O)N(Cc1cccc(F)c1)C2`: the growth turned out to be 1.09.

Take `COc1ccc(N2C(=O)c3[nH]nc(CC(C)C)c3C2c2cccc(C(F)(F)F)c2)cc1` (stereo not drawn): the growth was found to be 0.924.

As to `CC(=O)C1=C2C=CCCN2C(=O)NC1c1cc(F)ccc1C(F)(F)F` (stereo not drawn), the growth was found to be 0.95.

`CCCCC/C=C/NC(=O)c1ccccc1`: the growth is 0.891.

In the case of `COC(=O)C/C=C/[C@H](C)[C@H](/C=C/c1ccccc1)NC(=O)[C@@H](Cc1ccccc1)NC(=O)OC(C)(C)C`, the growth is 0.941.

For the molecule `COc1cc(F)cc2c1[C@]1(O)[C@H](O)[C@H](C#N)[C@@H](c3ccccc3)[C@]1(c1ccc(Br)cc1)O2`, the growth was found to be 1.02.

For `CN(C)CCn1cc(Nc2cc(O)cc(O)c2C(=O)N2CC3CC3C2)cn1` (stereo not drawn), the growth stood at 1.13.

In the case of `CC(=O)OC[C@H]1O[C@H](C#Cc2ccc(C(F)(F)F)cc2)C=C[C@H]1OC(C)=O`, the growth came to 0.887.

For `CC1=C(O)C=CC(=O)C12Oc1cc(C)cc(O)c1C2=O` (stereo not drawn), the growth stood at 1.31.

As to `CC(=O)C1=C2C=CCCN2C(=O)NC1c1ccccc1Br` (stereo not drawn), the growth turned out to be 0.932.

`COc1ccc([C@@]23Oc4cc(OC)cc(OC)c4[C@]2(O)[C@H](O)[C@H](C(=O)c2cc4cccc(OC)c4o2)[C@H]3c2ccccc2)cc1`: the growth was determined as 1.12.

Turning to `COc1cc(CO[C@H]2C=C[C@@H](c3ccccc3)O[C@@H]2CO)cc(OC)c1`, the growth turned out to be 1.1.

On to `BrC1=C[C@H](c2ccccc2)[C@@H](c2ccccc2)[C@@]12CCCO2`, for which the growth is 1.09.

As to `CCOC1=NCC(=O)N(C)[C@H]1C`, the growth stood at 0.984.

Regarding `CC(=O)c1c(C)oc(=O)c2c1OC1=C(C(=O)CCC1)[C@@]21C(=O)N(C)c2ccccc21`, the growth was determined as 0.954.

As for `CCCCNCC[C@@]12[C@H](NC(C)=O)[C@@H](C)[C@H](OCc3ccccc3)[C@@]13C=CC=C[C@H]32`, the growth was determined as 1.42.

Regarding `CC1(C)OB(c2ccc(NS(=O)(=O)N3CCOCC3)cc2)OC1(C)C`, the growth stood at 1.09.

In the case of `C[C@H]1CC[C@H]2C(=O)N(Cc3ccc(Cl)cc3)C[C@@H](O)CN2[C@@H]1c1ccc(Br)cc1`, the growth is 1.08.

Take `COc1ccc([C@@]23Oc4cc(OC)cc(OC)c4[C@]2(O)[C@H](O)[C@H](CO)[C@H]3c2ccccc2)cc1`: the growth turned out to be 0.968.

`C[C@@H]1/C=C/CC(=O)OCCCCC(=O)N2CCC[C@H]2C(=O)N[C@@H]1c1ccc(Br)cc1`: the growth amounted to 0.977.

With `CC(=O)OC[C@H]1O[C@H](c2ccc(-c3ccccc3)cc2)C=C[C@H]1OC(C)=O`, the growth came out at 0.924.

In the case of `COc1ccc2c(c1)C1(Cc3occc(=O)c3OS(C)(=O)=O)CCCCC1=N2` (stereo not drawn), the growth turned out to be 1.12.

`COC(=O)C/C=C/[C@H](C)[C@@H](NC(=O)[C@H](Cc1ccccc1)NC(=O)OC(C)(C)C)c1ccccc1`: the growth is 1.08.

Take `COC(=O)C1=C(C)N(Cc2ccccc2F)C(=S)NC1c1cccc(Cl)c1` (stereo not drawn): the growth is 0.82.

As to `CC(C)[C@H]1CC[C@H](C)C[C@@H]1OS(=O)(=O)NC(C)(C)C`, the growth was 1.18.

Turning to `COC(=O)C1=C(C)N(Cc2ccccc2)C(NCCc2c[nH]c3ccccc23)=N[C@H]1c1ccc(Br)cc1`, the growth stood at 0.903.

Regarding `C=CCCc1n[nH]c2c1C(c1ccc(F)cc1)N(c1ccc(OC)cc1)C2=O` (stereo not drawn), the growth stood at 1.23.

Regarding `CC(=O)C1=C(C)N(Cc2ccccc2)C(=S)NC1c1ccccc1Br` (stereo not drawn), the growth stood at 1.1.

As for `C[C@H]1C[C@H]2CC(=O)N[C@@H](Cc3ccccc3)C(=O)N2[C@H]1c1ccccc1`, the growth turned out to be 1.09.

On to `O[C@@H](Cc1ccccc1)[C@@H](/C=C/c1ccccc1)NCCc1ccccc1`, for which the growth worked out at 1.02.

`COc1ccc(-n2nc(C)c3c2C(=O)NC3c2ccccc2)cc1` (stereo not drawn): the growth came out at 0.968.

Take `O=C1CC2(CCCCC2)CNC(=O)c2cccc(c2)-c2cc(n[nH]2)COC[C@H](c2ccccc2)N1`: the growth was determined as 0.909.

For `COc1ccc(N2C(=O)c3[nH]nc(CC(C)C)c3[C@H]2c2ccccc2Br)cn1`, the growth was determined as 1.06.

On to `CC(C)=CCc1ccc(O)c2oc3ccccc3c(=O)c12`, for which the growth was found to be 0.726.

`CO[C@@H]1[C@H](O)CC[C@]2(O)CN(CC3CC3)[C@@H](CC=C(C)C)[C@](C)(O)[C@@H]12`: the growth turned out to be 1.09.

With `COc1ccc([C@@]23Oc4cc(OC)c(Cl)c(OC)c4[C@]2(O)c2nc4n(c(=O)c2[C@H]3c2ccccc2)CCC4)cc1`, the growth came out at 1.08.

`CC(=O)C1=C2C=CCCN2C(=O)NC1c1cc(F)ccc1F` (stereo not drawn): the growth worked out at 1.18.

Regarding `CO[C@@H]1[C@H](O)CC[C@]2(O)CN(c3nc(-c4ccccc4)cs3)[C@](C)([C@H](O)CC=C(C)C)[C@@H]12`, the growth was found to be 0.935.

Take `CO[C@@H]1[C@H](O)CC[C@]2(O)CN(c3ccc(C#N)cc3)[C@@H](CC=C(C)C)[C@](C)(O)[C@@H]12`: the growth was 0.909.

Regarding `CC[C@]1(Cc2occc(=O)c2OS(C)(=O)=O)C(c2ccccc2)=Nc2ccccc21`, the growth worked out at 1.11.

As for `COC(=O)C/C=C/[C@H](C)[C@@H](NC(=O)[C@H](CC(C)C)NC(=O)OC(C)(C)C)c1ccccc1`, the growth was determined as 1.12.

For `COc1cc([C@@H]2[C@@H](C(=O)Nc3ccccc3)[C@H](C(=O)Nc3ccccc3)[C@H]2c2ccc(O)c(OC)c2)ccc1O`, the growth came to 0.822.

As to `CC(C)C1=C[C@@H]2[C@H]3C(C(C(C)C)=CC(=O)[C@@]3(C)O)C1C(=O)[C@@]2(C)O` (stereo partly drawn), the growth is 1.03.

With `COc1ccc(N2C(=O)C3=C(C(c4ccccc4)=NCCN3)C2c2ccc(C)cc2)cc1` (stereo not drawn), the growth worked out at 0.908.

Regarding `COC(=O)C1=C(C)N(C)C(=S)NC1c1ccc(OC)cc1` (stereo not drawn), the growth was found to be 1.13.

Take `CO[C@@H]1[C@H](O)CC[C@]2(O)CN(c3cc(C)ccc3C)[C@@H](CC=C(C)C)[C@](C)(O)[C@@H]12`: the growth was 0.892.

As for `CCNC1=NC(c2ccc(C(F)(F)F)cc2)C(C(=O)OC)=C(C)N1Cc1cccc(C(F)(F)F)c1` (stereo not drawn), the growth was 0.745.

Turning to `COc1cc2c(cc1OC)CN(CCc1ccc([N+](=O)[O-])cc1)CC2`, the growth turned out to be 0.927.

On to `O=C(c1c(O)cc(O)cc1Nc1ccnn1C1CCCCC1)N1Cc2cccnc2C1`, for which the growth came to 1.11.

Regarding `COc1ccc(N2C(=O)c3[nH]nc(CC(C)C)c3[C@H]2c2cccc(C(F)(F)F)c2)cn1`, the growth stood at 0.87.

Turning to `COC(=O)c1cc2c(c3c4cc(C)ccc4n(S(=O)(=O)c4ccc(OC)cc4)c13)C(=O)N(Cc1ccccc1)C2`, the growth is 1.15.

Consider `COc1ccc2c(=O)cc(-c3ccccc3)oc2c1OCC=C(C)C`, for which the growth amounted to 1.05.

In the case of `COC(=O)C1NC(=O)C(Cc2ccccc2)N(C)C1=O` (stereo not drawn), the growth stood at 1.06.

Consider `Clc1cccnc1CCCc1ccccc1`, for which the growth amounted to 1.11.

In the case of `C=CCN1C(=O)C2=C(C(C(C)C)=NCCN2)C1c1ccc(Br)cc1` (stereo not drawn), the growth came out at 1.07.

Take `COc1ccc2c(=O)c3cccc(C)c3oc2c1OCC=C(C)C`: the growth worked out at 1.15.

For the molecule `CC(C)=CCc1cc(OCC(=O)NCC(=O)NCc2ccc(O)cc2)cc2oc3cccc(O)c3c(=O)c12`, the growth amounted to 1.04.

As for `COc1ccc2c(c1)CCN2CC1CCCN(CCc2ccccc2)C1` (stereo not drawn), the growth is 0.757.

Consider `COC(=O)c1[nH]c2ccc(OC)cc2c1[C@]12CCN(C(=O)c3ccc(S(C)(=O)=O)cc3)[C@H]1Nc1ccccc12`, for which the growth amounted to 0.966.

Take `CCCCS(=O)(=O)N1CCCc2nc(CC)c(CC)cc21`: the growth amounted to 0.927.

Take `COC(=O)C1=C(C)NC(=O)N(C(C)=O)C1c1ccccc1` (stereo not drawn): the growth was 1.06.

In the case of `COc1ccc2c(c1)[C@@H](NS(=O)(=O)c1ccccc1)[C@H](C)[C@H]2c1ccccc1`, the growth was determined as 1.08.

Regarding `COc1cccc2c1c(=O)c(O)c(-c1ccc(Br)cc1)n2C`, the growth turned out to be 0.485.

With `O=C(/C=C/c1ccc(Br)cc1)c1c(O)cc(F)cc1OCC(F)(F)F`, the growth came out at 1.09.

Regarding `C[C@@H]1/C=C/CC(=O)N[C@H](c2ccc3ccccc3c2)[C@H](C)/C=C/CC(=O)N[C@@H]1c1ccc2ccccc2c1`, the growth amounted to 0.975.

For `COc1ccc(C[C@H]2COC(=O)[C@@H]2Cc2ccc(OC)c(OC)c2OC)c(OC)c1OC`, the growth came out at 1.09.

For `CC(C)(C)NS(=O)(=O)OCC1CCC1`, the growth was determined as 1.22.

Consider `C=CCN1C(=O)C2=C(C(C)=NCCN2)C1c1ccc(Br)cc1` (stereo not drawn), for which the growth stood at 1.12.

Take `Brc1cc2c3c(ccc4c3c1OCO4)OCO2`: the growth worked out at 1.03.
